Laboratory results taken from patent US20050261129A1, “Method of protecting plants from bacterial and fungal diseases” (priority 2003, published 2005).

Key:
[1] = tested on: bacterial spot (Xanthomonas campestris pv. vesicatoria) and bacterial speck (Pseudomonas syringae pv. tomato); test: Tomato SAR trial, greenhouse bacterial cluster counts (Example 9); details: number of bacterial lesions on a total of 100 tomato seedlings; each treatment followed by BONZI 5 ppm
Experimental: (§1) In this example, the efficacy of several experimental systemic acquired resistance (SAR) compositions in controlling bacterial spot (Xanthomonas campestris pv. vesicatoria) and bacterial speck (Pseudomonas syringae pv. tomato) in tomato plants was determined. The SAR compositions tested are noted in Table 11.
(§2) Tomatoes were seeded in a green house and the SAR compositions applied three separate times, first as a drench nine days after seeding, the second at the 2-leaf stage 15 days after seeding, and finally as a foliar application in the filed approximately two months from seeding. Each treatment was followed up by a 5 ppm application of a plant growth regulator comprising paclobutrazol available under the name BONZI from Syngenta, Greensboro, N.C. The tomatoes were transplanted in single twin-row plots, seven meters in length with rows spaced 1.65 m apart. This procedure was replicated four times in a randomized complete block design. The seedlings were transplanted approximately 1.5 months after seeding using a commercial transplanter. The foliar applications were applied using a specialized small plot research CO2 sprayer with a three nozzled hand-held boom applying 200 L/ha of spray mixture. Foliar bacterial disease assessments were made prior to transplanting and in the field approximately 3.5 months after seeding. Phytotoxicity ratings were also taken in green house prior to transplanting.

[2] = tested on: bacterial spot (Xanthomonas campestris pv. vesicatoria) and bacterial speck (Pseudomonas syringae pv. tomato); test: Tomato SAR trial, field foliar bacterial disease ratings (Example 9); details: 0, no control, foliage severely damaged; 10, complete control; approximately 3.5 months after seeding; with BONZI 5 ppm
Experimental: as §1, §2

COC(=O)[C@@]1(C)CC[C@]2(C(=O)O)CC[C@]3(C)C(=CCC4[C@@]5(C)CCC(O)[C@@](C)(CO)C5CC[C@]43C)C2C1 (stereo partly drawn) [Sapogenin 1, Phytolaccagenic acid]
Greenhouse Evaluations: Bacterial Cluster counts [1]: 12.3
Field Evaluations: Foliar Disease Ratings (0-10) [2]: 6.8

CC1(C)CC[C@]2(C(=O)O)CC[C@]3(C)C(=CC[C@@H]4[C@@]5(C)CC[C@H](O)[C@@](C)(CO)[C@@H]5CC[C@]43C)[C@@H]2C1 [Sapogenin 2, Hederagenin]
Greenhouse Evaluations: Bacterial Cluster counts [1]: 19.0
Field Evaluations: Foliar Disease Ratings (0-10) [2]: 6.8

CC1(C)CC[C@]2(C(=O)O)CC[C@]3(C)C(=CC[C@@H]4[C@@]5(C)CC[C@H](O)C(C)(C)[C@@H]5CC[C@]43C)[C@@H]2C1 [Sapogenin 3, Oleanolic acid]
Greenhouse Evaluations: Bacterial Cluster counts [1]: 2.7
Field Evaluations: Foliar Disease Ratings (0-10) [2]: 6.5

COC(=O)[C@@]1(C)CC[C@]2(C(=O)O)CC[C@]3(C)C(=CCC4[C@@]5(C)CCC(O)[C@@](C)(CO)C5CC[C@]43C)C2C1 (stereo partly drawn) [Sapogenin 4, Phytolaccagenic acid]
Greenhouse Evaluations: Bacterial Cluster counts [1]: 19.7
Field Evaluations: Foliar Disease Ratings (0-10) [2]: 7.8

CC1(C)CC[C@]2(C(=O)O)CC[C@]3(C)C(=CC[C@@H]4[C@@]5(C)CC[C@H](O)[C@@](C)(CO)[C@@H]5CC[C@]43C)[C@@H]2C1 [Sapogenin 5, Hederagenin]
Greenhouse Evaluations: Bacterial Cluster counts [1]: 23.3
Field Evaluations: Foliar Disease Ratings (0-10) [2]: 8.0

CC1(C)CC[C@]2(C(=O)O)CC[C@]3(C)C(=CC[C@@H]4[C@@]5(C)CC[C@H](O)C(C)(C)[C@@H]5CC[C@]43C)[C@@H]2C1 [Sapogenin 6, Oleanolic acid]
Greenhouse Evaluations: Bacterial Cluster counts [1]: 31.3
Field Evaluations: Foliar Disease Ratings (0-10) [2]: 8.0
